Reference: PubChem BioAssay (NCI)
Where “and” joins values, the source holds several entries; their conditions need not be identical. Equal values may be shown once.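 48-hour exposure; five concentrations; linearly interpolated endpoints. GI50 = concentration required for 50% inhibition of growth. Definition used: TGI = concentration required for complete inhibition of growth.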 Square brackets hold non-standard residues; d marks the D form. Peptide text beside a SMILES is read from it. * marks the point of attachment. NMeF = CN[CH](Cc1ccccc1)C(=O)O; NMeV = CN[CH](C(=O)O)C(C)C; Boc = CC(C)(C)OC(=O)*

system: NCI-H322M lung; assay: DTP human tumour cell line panel, 48 h

Structure (SMILES) | GI50 | TGI
COc1ccccc1CNCCCN1C(=O)c2ccc3c4c(ccc(c24)C1=O)C(=O)N(CCCOCCCCOCCCN)C3=O | 1.89 µM | 4.68 µM
Cc1ccc(/C=C2\CCCc3ccccc3C2=O)cc1 |  | > 100 µM
N#CC(NNC(=O)Cc1ccccc1)c1c(O)ccc2ccccc12 (stereo not given) |  | 82.5 µM
N#CC(NC12CC3CC(CC(C3)C1)C2)c1ccccc1C(F)(F)F (stereo not given) |  | > 100 µM
CC1(C)SCc2nc3ncccc3n21 |  | > 100 µM
COc1cc2c3c(n(CCCNC(=O)OCC4c5ccccc5-c5ccccc54)c(=O)c2cc1OC)-c1cc2c(cc1/C3=C\CCNC(=O)OCC1c3ccccc3-c3ccccc31)OCO2 | 23.4 µM | > 50 µM
c1ccc2c(c1)ccn2CCc1c[nH]c2ccccc12 |  | > 10 µM
O=C(O)c1ccc([N+](=O)[O-])c2cc3cnccc3nc12 |  | > 100 µM
Cc1cccc(NC(=O)/C(=N\NC(C)(C)C)C2NC(=S)NC2=O)c1C (stereo not given) |  | > 100 µM
COC(=O)C1=CNC=C(C(=O)OC)C1C1=CC(=O)C(C)=CC1=O | 55.4 µM | > 100 µM
C1=CC2SSSC2C1 (stereo not given) |  | > 100 µM
Cc1ccc2c(c1)C(C(=O)N[C@@H]1C(=O)N3[C@@H]1SC(C)(C)[C@@H]3C(=O)O)OCCC2 (stereo not given in full) |  | > 100 µM
COC(CNC(=O)C(C)NC(=O)CCc1ccccc1)OC (stereo not given) |  | > 100 µM
Cc1c(S(=O)(=O)/N=C(\NO)Nc2ccc(Cl)c(Cl)c2)sc2ccc(Cl)cc12 |  | 37.4 µM
Clc1nc(Cl)c(Cl)c(-c2ccccc2)n1 |  | 33.7 µM
O=C(NNC(=S)Nc1cccc(Cl)c1)c1cc(-c2ccccc2)nc2ccccc12 |  | 28.3 µM
CC(C)C(NC(=O)OC(C)(C)C)C(=O)N(C)C(Cc1ccccc1)C(=O)N(C)C(C(=O)O)C(C)C (stereo not drawn) (Boc-Val-[NMeF]-[NMeV]-OH; configuration not given here) |  | > 100 µM
C(=Nc1ccc(-c2nc3ccccc3[nH]2)cc1)c1cccs1 |  | > 100 µM
CON(C)C(=O)CNC(=O)OCC1c2ccccc2-c2ccccc21 |  | > 100 µM
CC(C)=CCC/C(C)=C/C=C/C(C)=C/C=C/C(C)=C/C=C/C=C(C)/C=C/C=C(C)/C=C/[C@H]1C(C(C)(C)O)CC[C@]1(C)O (stereo not given in full) |  | > 100 µM
C[C@]12CCC(=O)O[C@H]1CCCCO2 |  | > 100 µM
Cc1cc(S(=O)(=O)N=C2N(Cc3ccccc3)CCN2Cc2ccccc2)c(S)cc1Cl |  | > 100 µM
Cc1ccc(C2=C(c3ccccc3)C(Br)(c3ccc(C)cc3)C(c3ccccc3)=C2c2ccc(C)cc2)cc1 |  | > 100 µM
N#C/C(=C1C=C(Br)/C(=N\O)C=C\1Cl)c1cccc2ccccc12 |  | 16.6 µM
CSc1ccc2c(cc1=O)[C@@H](NC(=O)c1ccc(N)cc1)CCc1cc(O)c(O)c(O)c1-2 | 73 µM and 16.5 µM | > 100 µM

Structure (SMILES) | GI50 | TGI
COC(=O)[C@H](C)NC(=O)NC(=O)NC(=O)CI | > 100 µM | > 100 µM
CC(C)(C)c1cc(C(C)(C)C)cc(S(=O)(=O)Nc2cc3ccccc3cc2C(=O)NCCN)c1 | 1.89 µM | 3.62 µM
c1ccc(CNn2nnc3ccccc32)cc1 |  | > 100 µM
N=C(N)c1ccc(C(NC(=O)CNS(=O)(=O)c2ccc3ccccc3c2)P(=O)(Oc2ccccc2)Oc2ccccc2)cc1 (stereo not given) |  | > 100 µM
CCOC(=O)C(=Cc1[nH]c2ccccc2c1-c1c[nH]c2ccccc12)C(=O)OCC |  | 30.8 µM
COc1cc(/C=C/c2cc(/C=C/c3ccc(O)c(OC)c3)n(C(=O)Nc3ccc(F)c(Cl)c3)n2)ccc1O | 0.555 µM | 5.8 µM
COc1ccc(C(=O)C(C(=O)CCC(=O)Nc2cccc(Cl)c2)c2ccc(OC)cc2)cc1 (stereo not given) |  | > 100 µM
O=C1/C(=N/O)Cc2c(Br)ccc(Br)c21 |  | > 100 µM
NC(N)=N/N=C/c1c[nH]c2ccccc12 |  | > 100 µM
CC1=NNC(N)=N/C1=C\C(Sc1ccc(Cl)cc1)c1ccc([N+](=O)[O-])cc1 (stereo not given) |  | > 100 µM
COc1ccc(Cn2cc3c(c2-c2ccccc2)CC(C)(C)c2cnoc2-3)cc1 | 3.34 µM | > 100 µM
CCN(CC)C(=S)N/N=C(/C)c1cccc(/C(C)=N\NC(=S)N(CC)CC)n1 |  | 3.63 µM
C=C1C(=O)O[C@@H]2/C=C(\C)CC/C=C(/COC(C)=O)C[C@@H](OC(C)=O)[C@@H]12 |  | > 100 µM
Cc1cc(S(=O)(=O)Nc2nnc(-c3ccccc3)c(-c3ccccc3)n2)c(SCC(N)=O)cc1Cl | 41.8 µM | > 100 µM
O=Cc1ccc(OCc2cccc(COc3ccc(/C=N\Nc4ccc([N+](=O)[O-])cc4[N+](=O)[O-])cc3)n2)cc1 |  | > 100 µM
CC(C)n1nc(-c2cc3cc(O)ccc3[nH]2)c2c(N)ncnc21 | 0.161 µM | 2.24 µM
O=C(c1ccc(N=Cc2ccccc2O)cc1)c1ccc(N=Cc2ccccc2O)cc1 |  | > 100 µM
COC1C=CC(O)C(CO)O1 (stereo not given) |  | > 100 µM
COc1cc(CNCc2cc(OC)c(OC)c(OC)c2)cc(OC)c1OC |  | > 10 µM
CCOC(=O)CNc1c(OCc2ccccc2)c(=O)c1=O |  | > 100 µM
Oc1c(CN2CCOCC2)ccc2cccnc12 |  | > 10 µM
Cn1cc(NC(=O)c2cc(NC(=O)CN=C(N)N)cn2C)cc1C(=O)NCCC(=N)N |  | > 100 µM
COc1cc(Cn2c3c(c4cc(O)ccc42)Cc2ccccc2C3=O)cc(OC)c1 |  | > 100 µM
Oc1ccc(-c2nc(-c3cccnc3)c(-c3ccc(Cl)cc3)[nH]2)cc1 |  | 30 µM
O=C1OC(c2ccccc2)=N/C1=C\c1cccc2ccccc12 |  | > 100 µM

Structure (SMILES) | GI50 | TGI
Cc1nc(-c2cc3cc([N+](=O)[O-])ccc3oc2=O)cs1 |  | > 100 µM
CCOC(=O)c1c(C)n(Cc2ccc(Cl)cc2Cl)c2c1c(CN(C)C)c(O)c1[nH]cnc12 | 19.9 µM | 36.2 µM
CCOP(C)(=O)C(N)Cc1ccc(OC)c(OC)c1 (stereo not given) |  | > 100 µM
COc1cc(C=C2C(=O)NC(=O)NC2=O)cc(OC)c1OC |  | > 100 µM
O=C(O)Cc1cccc2c(=O)c3ccccc3oc12 |  | > 100 µM
O=C1C2C3C=C4c5ccccc5N(c5ccccc5)C4(C2C(=O)N1Cc1ccccc1)C1C(=O)N(Cc2ccccc2)C(=O)C31 (stereo not given) |  | > 100 µM
Cn1c(=O)c(C(c2ccc([N+](=O)[O-])cc2)c2c(O)c3ccccc3n(C)c2=O)cc2ccccc21 (stereo not given) |  | > 100 µM
CC(C)(C)c1cc(Br)c(O)c(CN(Cc2cc(C(C)(C)C)cc(Br)c2O)C2CCCCC2)c1 |  | 31.2 µM
C[N+](C)(C)CC1CCCCCCCCCCC1=O (stereo not given) |  | > 100 µM
Oc1cccnc1CN1CCCCC1 |  | > 100 µM
CC(C)C(Nc1c2ccccc2nc2ccccc12)C(=O)O (stereo not given) |  | > 100 µM
Cc1ccc(N=Nc2c(O)ccc3cc(S(=O)(=O)O)cc(S(=O)(=O)O)c23)cc1 |  | > 100 µM
Nc1nc(N)c2ncn(-c3ccc(Cl)cc3)c2n1 |  | > 100 µM
O=S(=O)(N=S(c1ccccc1)c1ccccc1)c1ccccc1 |  | > 100 µM
CC1NC(=O)CC(c2ccccc2)N(N=O)C1c1ccccc1 (stereo not given) |  | > 100 µM
CS/C(N)=N\NC(=O)CCC(=O)Nc1ccccc1C(F)(F)F |  | > 100 µM
CCOC(=O)N/N=C(/N)c1cccc([N+](=O)[O-])c1 |  | > 100 µM
CCOC(=O)[C@@H](N)CCC(=O)N[C@@H](CSCc1ccccc1)C(=O)N[C@@H](C(=O)OCC)c1ccccc1 | 29.6 µM | > 62.6 µM
NS(=O)(=O)c1ccc(NC2(C(=O)O)CCCC2)cc1 |  | > 100 µM
O=C1CCC(c2ccc(Cl)cc2)=NN1c1nsc2ccccc12 |  | > 100 µM
COC(=O)/C(=N\Nc1nnc(C)n1N)C(C#N)c1ccc(Cl)cc1 (stereo not given) |  | > 100 µM
COc1ccc(C(=C(Cl)c2ccccc2)c2ccc(OC)cc2)cc1 |  | > 100 µM
Cc1cc(Cl)ccc1N=C1NC(=O)C(CC(=O)Nc2ccc([N+](=O)[O-])cc2[N+](=O)[O-])S1 (stereo not given) |  | > 100 µM
COc1cc2ncnc(Nc3ccc(C)c(O)c3)c2cc1OC | 1.35 µM | > 18.9 µM
COC1=C(OC)C(=O)C(Cc2c(C)nc3sc(C)cn23)=C(C)C1=O |  | > 100 µM

Structure (SMILES) | GI50 | TGI
Cc1ccc(C(=O)CN(/C=C/C(=O)C(F)(F)F)c2ccc(S(N)(=O)=O)cc2)cc1 | 87.5 µM | > 100 µM
CN(C)C(=O)c1cc2cnc(Nc3ccc(-c4csc5c(=S)cc(N6CCOCC6)oc45)cc3)nc2n1C1CCCC1 | 0.55 µM | > 50 µM
COc1ccc(/C=C/c2ccnc3ccccc23)c(OC)c1 |  | > 10 µM
COC[C@@H](C[C@H]1O[C@@](O)([C@H](O)[C@@H]2C[C@H](OC)[C@@H](O)CC/C=C(C)/C=C/[C@@H](O[C@@H]3O[C@@H](C)[C@H](OC)[C@@H](O)[C@@H]3O)[C@H](C)/C=C(C)/C=C(C)/C=C(\C)C(=O)O2)[C@H](C)[C@@H](O)[C@H]1C)O[C@H]1C[C@](C)(O)[C@@H](O[C@H]2C[C@@H](OC)[C@H](O)[C@@H](C)O2)C(C)O1 (stereo not given in full) |  | > 100 µM
Cc1ccn2c(c1)nc1nc3ccccc3nc12 |  | > 100 µM
COc1ccc(C2OC[C@H]3O[C@@H](OCc4ccccc4)[C@H](O)[C@@H](O)[C@@H]3O2)cc1 (stereo not given in full) |  | > 100 µM
O=Cc1ccc2c(c1)CC1(Cc3ccccc3C1)C2 |  | > 100 µM
COCN(CCC1=CCCCC1)C(=O)OC |  | > 100 µM
COc1cc(C(C)O)c[n+](CCc2c[nH]c3ccccc23)c1 (stereo not given) |  | > 100 µM
C=CC(CCc1ccc(C(=O)OCC)cc1)c1c(N)nc(N)[nH]c1=O (stereo not given) |  | > 100 µM
CC(=O)CSCc1ccccn1 |  | > 100 µM
C=CCCN1CCc2c([nH]c3ccccc23)C1C(=O)O (stereo not given) |  | > 100 µM
O=C1OC(C(O)CO)C(=O)C1=O (stereo not given) | 2110 µM | 7200 µM
CC1(C)NC2C(=O)c3c([nH]c4ccccc34)[C@]3(C)CCC1CC23 (stereo not given in full) |  | > 100 µM
COc1cccc(-c2ccc3c4c2O[C@H]2C(=O)CC[C@@]5(O)[C@@H](C3)N(CC3CC3)CC[C@]425)c1 |  | 37.6 µM
Cn1c2c(c3ccccc31)CC1c3c(c4ccccc4n3C)CC21 (stereo not given) |  | > 100 µM
CCOc1cn(C2CC(O)C(CO)O2)c(=O)[nH]c1=O (stereo not given) |  | > 100 µM
NC(Cc1ccccc1)C(=O)N[C@H]1c2ccsc2/C(=N/O)[C@H]1O (stereo not given in full) |  | > 100 µM
COc1nc2ccccc2cc1-c1nc2c(cnn2-c2ccc(Br)cc2)c(=O)[nH]1 | 0.957 µM | > 50 µM
COc1cc(-c2ccc3c(c2)NC(=O)/C3=C\c2ccc[nH]2)ccc1O | 0.179 µM | > 50 µM
O=C1CCN2C(=O)CCN12 |  | > 100 µM
CN1C/C=C\CCOc2cccc(c2)-c2ccnc(n2)Nc2cccc(c2)C1 | 0.0588 µM | 2.4 µM
CCCCC(O)(c1ccc(Cl)cc1)C(CN1CCOCC1)c1ccc(Cl)cc1 (stereo not given) | 19.4 µM | 44.8 µM
CC(C)[Si](OC1=C(C(=O)N(C)c2cccc(Cl)c2)CCCC1)(C(C)C)C(C)C |  | 29.3 µM
O=C1C=C(C2=CC(=O)C(=O)c3ccccc32)c2ccccc2C1=O |  | > 100 µM
